Hit rate of the full screen: of about 55,000 compounds, about 530 (0.96%) were called active. The inconclusive results got no clear call from the source; some entries with a clear call stand among them for comparison. Calls follow the shape of the dose curve; as a rule, active = well fitted cell-killing curve with a large enough effect; inconclusive = small, poorly fitted or top-dose-only effect; inactive = no such curve, though single readings can be large or run the other way. A potency beside an inconclusive call is a rough fit, not a confirmed value.
Assay: qHTS Screen for Compounds that Selectively Target Cancer Cells with p53 Mutations: Cytotoxicity of p53 Null Cells at the Nonpermissive Temperature; also: nearly all actives have a fitted effect of over 50% in size
Conditions: H1299 p53-null (neo) cells, 39C, ATPlite viability, 24 h; series mostly up to 46.1 µM
Outline: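 Concentration-response (up to 46 uM) was run for 24 h at the nonpermissive 39C on H1299-p53A138V or H1299-neo cells. ATP content was measured with ATPlite luminescence. AC50 values were Hill-modeled after normalizing between DMSO and 100 uM tamoxifen killing.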
Potency is read from the fitted curve at half-maximal effect; tags tell the direction and shape of the fitted curve.

Structure (SMILES)	Potency
Cc1nnc(N2C(=O)c3oc4ccccc4c(=O)c3C2c2cccc(OCCC(C)C)c2)s1 (configuration not stated)	inactive
CCS(=O)(=O)c1ncc(Cl)c(C(=O)Nc2ccc(S(=O)(=O)N(C)c3ccccc3)cc2)n1	inconclusive: 31.6 µM [cytotoxic, single point]
COCCNC(=O)CSc1c(C)cnc2c1c(=O)n(C)c(=O)n2C	inconclusive: 0.141 µM [cytotoxic, single point]
Cc1ccc(NC(=O)Cc2csc(-c3ccccc3)n2)cc1F	inconclusive: 0.0002 µM [cytotoxic, full curve]
COc1ccc(Cn2c(C(=O)O)c(CNCc3ccco3)c3ccc(C)cc32)cc1	inconclusive: 3.16 µM [cytotoxic, full curve]
Cc1ccc(C)c(NC(=O)Nc2cc3c(cc2N2CCCCC2)n(C)c(=O)n3C)c1	inconclusive: 35.5 µM [cytotoxic, single point]
Cc1ccc(CSc2nc3cccnc3n2Cc2ccc(C(=O)NC3CC3)cc2)cc1	active: 3.16 µM
Cc1ccc(NC(=O)CN2C(=O)CCSc3ccccc32)c(C)c1	inconclusive: 0.398 µM [cytotoxic, partial curve]
COc1cccc(CNC(=O)Cn2c(=O)ccc3cc(S(=O)(=O)N4CCCC4)ccc32)c1	inactive
CSc1cccc(-n2nnc(-c3nsc(NC(=O)c4cccs4)n3)c2C)c1	inconclusive: 10 µM [cytotoxic, partial curve]
Oc1ccc(Br)cc1-c1cc(-c2ccccc2)n[nH]1	inconclusive: 17.8 µM [cytotoxic, single point]
Cc1ccc2nc(-c3ccc(NC(=O)CN4C(=O)NC(C)(c5ccc(OC(F)F)cc5)C4=O)cc3)sc2c1 (configuration not stated)	inconclusive: 1.41 µM [cytotoxic, partial curve, poor fit]
CCc1ccc(NC(=O)C2CCCN(S(=O)(=O)c3ccc4c(c3)oc(=O)n4C)C2)cc1 (configuration not stated)	inconclusive: 5.01 µM [cytotoxic, partial curve]
O=C(Nc1ccc2nc(SCC(=O)N3CCOCC3)sc2c1)c1cccc(Br)c1	inconclusive: 0.316 µM [cytotoxic, partial curve]
CCC(C)NC(=O)c1nn(-c2ccc(C)cc2)nc1CO (configuration not stated)	inconclusive: 12.6 µM [cytotoxic, single point]
CCN(Cc1ccccc1)C(=O)Cn1c(=O)n(-c2ccccc2)c(=O)c2c1c1cc(C)ccc1n2C	inconclusive: 5.01 µM [cytotoxic, full curve, poor fit]
Cc1ccc(-c2cc(C(=O)Oc3ccc(C#N)cc3)no2)cc1	inconclusive: 10 µM [cytotoxic, single point]

Source: PubChem BioAssay AID904 (National Center for Advancing Translational Sciences (NCATS), 2007)
